Assay results from the supplement of paper PMC10724272.
MIC of invasive clinical C. tropicalis isolates, CLSI broth microdilution (fluconazole 0.12-256 mg/L, up to 1,024 for the azole-resistant cluster and its neighbour group; other ranges not stated); higher = less susceptible. Call: susceptible or wild type [S] / resistant or non-wild type [R] by CLSI breakpoints or cut-offs; intermediate and dose-dependent carry no call. '<=' and '>=' at the end values are inferred; the source marks only some of them. Isolates are numbered anew.

How the values were obtained:
Test in all cases: CLSI broth microdilution.
itraconazole = compound: CCC(C)n1ncn(-c2ccc(N3CCN(c4ccc(OCC5COC(Cn6cncn6)(c6ccc(Cl)cc6Cl)O5)cc4)CC3)cc2)c1=O [itraconazole]
micafungin = compound: CCCCCOc1ccc(-c2cc(-c3ccc(C(=O)N[C@H]4C[C@@H](O)[C@@H](O)NC(=O)[C@@H]5[C@@H](O)[C@@H](C)CN5C(=O)[C@H]([C@H](O)CC(N)=O)NC(=O)[C@H]([C@H](O)[C@@H](O)c5ccc(O)c(OS(=O)(=O)O)c5)NC(=O)[C@@H]5C[C@@H](O)CN5C(=O)[C@H]([C@@H](C)O)NC4=O)cc3)no2)cc1 [micafungin]
anidulafungin = compound: CCCCCOc1ccc(-c2ccc(-c3ccc(C(=O)N[C@H]4C[C@@H](O)[C@@H](O)NC(=O)[C@@H]5[C@@H](O)[C@@H](C)CN5C(=O)[C@H]([C@@H](C)O)NC(=O)[C@H]([C@H](O)[C@@H](O)c5ccc(O)cc5)NC(=O)[C@@H]5C[C@@H](O)CN5C(=O)[C@H]([C@@H](C)O)NC4=O)cc3)cc2)cc1 [anidulafungin]
posaconazole = compound: CC[C@@H]([C@H](C)O)n1ncn(-c2ccc(N3CCN(c4ccc(OC[C@@H]5CO[C@@](Cn6cncn6)(c6ccc(F)cc6F)C5)cc4)CC3)cc2)c1=O [posaconazole]
caspofungin = compound: CC[C@H](C)C[C@H](C)CCCCCCCCC(=O)N[C@H]1C[C@@H](O)[C@@H](NCCN)NC(=O)[C@@H]2[C@@H](O)CCN2C(=O)[C@H]([C@H](O)CCN)NC(=O)[C@H]([C@H](O)[C@@H](O)c2ccc(O)cc2)NC(=O)[C@@H]2C[C@@H](O)CN2C(=O)[C@H]([C@@H](C)O)NC1=O [caspofungin]
voriconazole = compound: C[C@@H](c1ncncc1F)[C@](O)(Cn1cncn1)c1ccc(F)cc1F [voriconazole]
amphotericin B = compound: C[C@@H]1[C@H](O)[C@@H](C)/C=C/C=C/C=C/C=C/C=C/C=C/C=C/[C@H](O[C@@H]2O[C@H](C)[C@@H](O)[C@H](N)[C@@H]2O)C[C@@H]2O[C@](O)(C[C@@H](O)C[C@@H](O)[C@H](O)CC[C@@H](O)C[C@@H](O)CC(=O)O[C@H]1C)C[C@H](O)[C@H]2C(=O)O [amphotericin B]
flucytosine = compound: Nc1[nH]c(=O)ncc1F [flucytosine]
fluconazole = compound: OC(Cn1cncn1)(Cn1cncn1)c1ccc(F)cc1F [fluconazole]

Test System | MIC (itraconazole) | MIC (micafungin) | MIC (anidulafungin) | MIC (posaconazole) | MIC (caspofungin) | MIC (voriconazole) | MIC (amphotericin B) | MIC (flucytosine) | MIC (fluconazole)
Candida tropicalis isolate 300 (ERG11 copies: 6, Erg11p: Y132F, S154F (heterozygous)) | 1 mg/L [R] | 0.06 mg/L [S] | 0.12 mg/L [S] | 1 mg/L [R] | 0.03 mg/L [S] | ≥ 8 mg/L [R] | 1 mg/L [S] | ≤ 0.06 mg/L [S] | 256 mg/L [R]
Candida tropicalis isolate 80 (ERG11 copies: 2, Erg11p: no key change) | 0.25 mg/L [S] | 0.03 mg/L [S] | 0.12 mg/L [S] | 0.25 mg/L [S] | 0.06 mg/L [S] | 0.12 mg/L [S] | 1 mg/L [S] | ≤ 0.06 mg/L [S] | 2 mg/L [S]
Candida tropicalis isolate 217 (ERG11 copies: 2, Erg11p: no key change) | 0.25 mg/L [S] | 0.03 mg/L [S] | 0.03 mg/L [S] | 0.25 mg/L [S] | 0.03 mg/L [S] | 0.25 mg/L | 0.5 mg/L [S] | ≤ 0.06 mg/L [S] | 2 mg/L [S]
Candida tropicalis isolate 439 (ERG11 copies: 2, Erg11p: no key change) | 0.5 mg/L [S] | 0.03 mg/L [S] | 0.03 mg/L [S] | 0.5 mg/L [R] | 0.03 mg/L [S] | 0.25 mg/L | 1 mg/L [S] | ≤ 0.06 mg/L [S] | 4 mg/L
Candida tropicalis isolate 98 (ERG11 copies: 2, Erg11p: no key change) | 0.25 mg/L [S] | 0.03 mg/L [S] | 0.03 mg/L [S] | 0.25 mg/L [S] | 0.03 mg/L [S] | 0.12 mg/L [S] | 1 mg/L [S] | ≤ 0.06 mg/L [S] | 1 mg/L [S]
Candida tropicalis isolate 18 (ERG11 copies: 9, Erg11p: Y132F, S154F (heterozygous)) | 1 mg/L [R] | 0.03 mg/L [S] | 0.03 mg/L [S] | 2 mg/L [R] | 0.03 mg/L [S] | ≥ 8 mg/L [R] | 2 mg/L [S] | ≤ 0.06 mg/L [S] | 512 mg/L [R]
Candida tropicalis isolate 311 (ERG11 copies: 2, Erg11p: Y132F, S154F (homozygous)) | 0.25 mg/L [S] | 0.03 mg/L [S] | 0.25 mg/L [S] | 0.25 mg/L [S] | 0.06 mg/L [S] | 2 mg/L [R] | 1 mg/L [S] | ≤ 0.06 mg/L [S] | 32 mg/L [R]
Candida tropicalis isolate 354 (ERG11 copies: 2, Erg11p: Y132F, S154F (homozygous)) | 0.5 mg/L [S] | 0.03 mg/L [S] | 0.03 mg/L [S] | 0.5 mg/L [R] | 0.03 mg/L [S] | 2 mg/L [R] | 1 mg/L [S] | ≤ 0.06 mg/L [S] | 64 mg/L [R]
Candida tropicalis isolate 2 (ERG11 copies: 6, Erg11p: Y132F, S154F (homozygous)) | 1 mg/L [R] | 0.03 mg/L [S] | 0.06 mg/L [S] | 1 mg/L [R] | 0.03 mg/L [S] | ≥ 8 mg/L [R] | 1 mg/L [S] | ≤ 0.06 mg/L [S] | 256 mg/L [R]
Candida tropicalis isolate 115 (ERG11 copies: 2, Erg11p: no key change) | 0.12 mg/L [S] | 0.06 mg/L [S] | 0.06 mg/L [S] | 0.25 mg/L [S] | 0.03 mg/L [S] | 0.12 mg/L [S] | 0.5 mg/L [S] | ≤ 0.06 mg/L [S] | 2 mg/L [S]
Candida tropicalis isolate 156 (ERG11 copies: 2, Erg11p: no key change) | 0.5 mg/L [S] | 0.03 mg/L [S] | 0.03 mg/L [S] | 0.25 mg/L [S] | 0.03 mg/L [S] | 0.5 mg/L | 1 mg/L [S] | ≤ 0.06 mg/L [S] | 2 mg/L [S]
Candida tropicalis isolate 315 (ERG11 copies: 2, Erg11p: no key change) | 0.12 mg/L [S] | 0.03 mg/L [S] | 0.25 mg/L [S] | 0.12 mg/L [S] | 0.25 mg/L [S] | 0.06 mg/L [S] | 1 mg/L [S] | 0.12 mg/L [S] | 1 mg/L [S]
Candida tropicalis isolate 17 (ERG11 copies: 2, Erg11p: no key change) | 0.25 mg/L [S] | 0.03 mg/L [S] | 0.12 mg/L [S] | 0.25 mg/L [S] | 0.03 mg/L [S] | 0.12 mg/L [S] | 0.5 mg/L [S] | ≤ 0.06 mg/L [S] | 1 mg/L [S]
Candida tropicalis isolate 406 (ERG11 copies: 2, Erg11p: no key change) | 0.12 mg/L [S] | 0.03 mg/L [S] | 0.12 mg/L [S] | 0.12 mg/L [S] | 0.06 mg/L [S] | 0.12 mg/L [S] | 1 mg/L [S] | ≤ 0.06 mg/L [S] | 1 mg/L [S]
Candida tropicalis isolate 224 (ERG11 copies: 2, Erg11p: no key change) | 0.12 mg/L [S] | 0.03 mg/L [S] | 0.25 mg/L [S] | 0.12 mg/L [S] | 0.12 mg/L [S] | 0.12 mg/L [S] | 1 mg/L [S] | ≤ 0.06 mg/L [S] | 2 mg/L [S]
Candida tropicalis isolate 280 (ERG11 copies: 2, Erg11p: no key change) | 0.12 mg/L [S] | 0.015 mg/L [S] | 0.03 mg/L [S] | 0.12 mg/L [S] | 0.03 mg/L [S] | 0.06 mg/L [S] | 1 mg/L [S] | ≤ 0.06 mg/L [S] | 1 mg/L [S]
Candida tropicalis isolate 164 (ERG11 copies: 2, Erg11p: no key change) | 0.12 mg/L [S] | 0.06 mg/L [S] | 0.06 mg/L [S] | 0.12 mg/L [S] | 0.03 mg/L [S] | 0.12 mg/L [S] | 0.5 mg/L [S] | ≤ 0.06 mg/L [S] | 1 mg/L [S]
Candida tropicalis isolate 14 (ERG11 copies: 2, Erg11p: no key change) | 0.12 mg/L [S] | 0.03 mg/L [S] | 0.06 mg/L [S] | 0.06 mg/L [S] | 0.25 mg/L [S] | 0.03 mg/L [S] | 1 mg/L [S] | ≤ 0.06 mg/L [S] | 4 mg/L
